# Reference: ChEMBL document CHEMBL5606458, “ASAP - ZIKV NS2B-NS3 protease fluorescence single point” (2024)
# Hit rate of the full screen: of about 2,700 compounds, about 160 (5.9%) showed an effect of 50% or more. Some of the results follow.
# Target: Nonstructural protein 3 (Zika virus) (UniProt A0A024AXB9)
# [1] = PRVABC59, Concentration 50.0 uM, Number of replicates 1.0
# [2] = PRVABC59, Concentration 15.0 uM, Number of replicates 1.0
# [3] = PRVABC59, Concentration 10.0 uM, Number of replicates 1.0
# Sequence of UniProt A0A024AXB9 (A0A024AXB9 as listed by the source): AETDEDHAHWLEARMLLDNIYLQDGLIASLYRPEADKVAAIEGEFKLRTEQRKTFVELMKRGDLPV
compound,measurement,setting,value
O=Cc1ccc(N2CCC(C(=O)N(CCCO)Cc3ccncc3)CC2)cc1,inhibition,[1],21.9%
CNC(=O)[C@H]1CCCN(S(=O)(=O)c2ccc(Oc3ccccc3Cl)cc2)C1,inhibition,"PRVABC59, Concentration 49.5 uM, Number of replicates 2.0, Standard deviation 4.537978996087977 %",5.38%
same,inhibition,"PRVABC59, Concentration 99.01 uM, Number of replicates 2.0, Standard deviation 0.050727272518135885 %",6.35%
same,inhibition,"PRVABC59, Concentration 198.0 uM, Number of replicates 2.0, Standard deviation 0.9173185714068767 %",4.62%
O=Cc1ccc(N2CCC(C(=O)N(Cc3c(F)cccc3Cl)C3CC3)CC2)cc1,inhibition,[1],23.1%
O=C(Nc1ccc2cc(Br)ccc2c1)c1cc(Cl)ccc1NS(=O)(=O)c1ccc(Oc2ccccc2Cl)cc1,inhibition,[2],45.9%
Cc1cc(CO)c2cccc(NC(=O)Cc3c(C)c4c(=O)[nH]n(C)c4[nH]c3=O)c2n1,inhibition,"PRVABC59, Concentration 49.95 uM, Number of replicates 2.0, Standard deviation 0.16559867672197162 %",15%
same,inhibition,"PRVABC59, Concentration 99.9 uM, Number of replicates 2.0, Standard deviation 1.570678848435362 %",29.8%
COc1cc2c(cc1OC)CN(C(=O)c1cc(Cl)ccc1NS(=O)(=O)c1ccc(Oc3ccccc3Cl)cc1)CC2,inhibition,[2],14%
COCCN(Cc1cccc2ccccc12)C(=O)c1cc(Cl)ccc1NS(=O)(=O)c1ccc(Oc2ccccc2Cl)cc1,inhibition,[2],21.2%
COc1ccc(CNC(=O)C2CCN(c3ccc(C=O)cc3)CC2)c(Cl)c1,inhibition,[3],9.91%
CC1(C)[C@H]2CC[C@]1(C)[C@H](NC(=O)c1cc(Cl)ccc1NS(=O)(=O)c1ccc(Oc3ccccc3Cl)cc1)C2,inhibition,[2],42.8%
O=Cc1ccc(N2CCC(C(=O)NCc3ccc(F)c(Cl)c3)CC2)cc1,inhibition,[3],22.8%
O=Cc1ccc(N2CCC(C(=O)Nc3ccc(-n4ccnc4)cc3)CC2)cc1,inhibition,[1],22.6%
Cc1cc(CO)c2cccc(Cc3cccc(NC(=O)C[C@H]4CCCN4)c3)c2n1,inhibition,"PRVABC59, Concentration 49.95 uM, Number of replicates 2.0, Standard deviation 0.1706171862678608 %",-9.82%
CNC(=O)c1cc(Cl)ccc1NS(=O)(=O)c1ccc(Cl)cc1C(=O)OC,inhibition,"PRVABC59, Concentration 49.5 uM, Number of replicates 2.0, Standard deviation 3.210164618700881 %",-0.406%
same,inhibition,"PRVABC59, Concentration 99.01 uM, Number of replicates 2.0, Standard deviation 3.769495150261016 %",2.47%
same,inhibition,"PRVABC59, Concentration 198.0 uM, Number of replicates 2.0, Standard deviation 2.8227683202777234 %",6.64%
O=Cc1ccc(N2CCC(C(=O)Nc3n[nH]cc3Br)CC2)cc1,inhibition,[1],19%
Cn1cc(NC(=O)c2ccccc2C(F)(F)F)c(-c2ccc3nncn3c2)n1,inhibition,"PRVABC59, Concentration 49.5 uM, Number of replicates 2.0, Standard deviation 1.0863104066087632 %",-8.05%
same,inhibition,"PRVABC59, Concentration 99.01 uM, Number of replicates 2.0, Standard deviation 0.7461135208959859 %",-5.65%
same,inhibition,"PRVABC59, Concentration 198.0 uM, Number of replicates 2.0, Standard deviation 0.13143966752825625 %",-3.1%
O=C(Nc1ccccc1I)c1cc(Cl)ccc1NS(=O)(=O)c1ccc(Oc2ccccc2Cl)cc1,inhibition,[2],26.7%
Cc1cc(CO)c2cccc(Cc3cccc(NC(=O)c4ccc(O)cc4)c3)c2n1,inhibition,"PRVABC59, Concentration 49.95 uM, Number of replicates 2.0, Standard deviation 2.8960178571157167 %",-0.029%
same,inhibition,"PRVABC59, Concentration 99.9 uM, Number of replicates 2.0, Standard deviation 3.293011583000684 %",3.78%
O=Cc1ccc(N2CCC(C(=O)Nc3ccc4nccnc4c3Br)CC2)cc1,inhibition,[1],13.2%
Cc1cnccc1NC(=O)C1(C(=O)Nc2ccc(F)cc2)CC1,inhibition,"PRVABC59, Concentration 49.5 uM, Number of replicates 2.0, Standard deviation 2.17886191854502 %",0.65%
same,inhibition,"PRVABC59, Concentration 99.01 uM, Number of replicates 2.0, Standard deviation 2.3265375425706125 %",1.23%
same,inhibition,"PRVABC59, Concentration 198.0 uM, Number of replicates 2.0, Standard deviation 2.36280863571033 %",2.11%
c1ccc2c([C@H]3CCN(Cc4ccnn4C4CCOCC4)C3)c[nH]c2c1,inhibition,"PRVABC59, Concentration 49.5 uM, Number of replicates 2.0, Standard deviation 0.9689729060048582 %",2.73%
same,inhibition,"PRVABC59, Concentration 99.01 uM, Number of replicates 2.0, Standard deviation 1.2714567916700876 %",5.36%
same,inhibition,"PRVABC59, Concentration 198.0 uM, Number of replicates 2.0, Standard deviation 1.125341760077732 %",10.1%
CC1(C)CC(O)CC(C)(C)N1C(=O)C1CCN(c2ccc(C=O)cc2)CC1,inhibition,[1],28.7%
O=C(NCc1ccc(SC(F)(F)F)cc1)c1cc(Cl)ccc1NS(=O)(=O)c1ccc(Oc2ccccc2Cl)cc1,inhibition,[2],24.1%
O=Cc1ccc(N2CCC(C(=O)NC3CCN(C(=O)Nc4ccccc4)CC3)CC2)cc1,inhibition,[1],27.1%
Cc1cc(CO)c2cccc(NC(=O)[C@H](N)CCO)c2n1,inhibition,"PRVABC59, Concentration 49.95 uM, Number of replicates 2.0, Standard deviation 1.0738831554442352 %",-6.11%
same,inhibition,"PRVABC59, Concentration 99.9 uM, Number of replicates 2.0, Standard deviation 2.7198345051524164 %",-0.085%
Cc1cc(CO)c2cccc(NC(=O)c3cc(C(F)F)nn3C)c2n1,inhibition,"PRVABC59, Concentration 49.95 uM, Number of replicates 2.0, Standard deviation 2.6796892104773047 %",5.91%
same,inhibition,"PRVABC59, Concentration 99.9 uM, Number of replicates 2.0, Standard deviation 1.6108242274041706 %",18.1%
COc1cc2c(cc1NC(=O)c1cc(Cl)ccc1NS(=O)(=O)c1ccc(Oc3ccccc3Cl)cc1)oc1ccccc12,inhibition,[2],36.2%
NC(=O)c1ccc(CNC(=O)c2ccc(OCc3ccccc3)cc2)cc1,inhibition,"PRVABC59, Concentration 49.5 uM, Number of replicates 2.0, Standard deviation 3.3276892513121745 %",3.53%
same,inhibition,"PRVABC59, Concentration 99.01 uM, Number of replicates 2.0, Standard deviation 3.432155778730429 %",4.11%
same,inhibition,"PRVABC59, Concentration 198.0 uM, Number of replicates 2.0, Standard deviation 2.352669831979398 %",0.729%
CC(C)(C)c1ccc(S(=O)(=O)N2CCN(C(=O)c3cc(Cl)ccc3NS(=O)(=O)c3ccc(Oc4ccccc4Cl)cc3)CC2)cc1,inhibition,[2],14.3%
O=C(NCc1nc(CO)cs1)[C@]1(c2ccc(F)cc2)CCCNC1,inhibition,"PRVABC59, Concentration 49.5 uM, Number of replicates 2.0, Standard deviation 1.2824455392848024 %",-0.834%
same,inhibition,"PRVABC59, Concentration 99.01 uM, Number of replicates 2.0, Standard deviation 2.655568906249308 %",0.218%
same,inhibition,"PRVABC59, Concentration 198.0 uM, Number of replicates 2.0, Standard deviation 3.7333414571678256 %",1.17%
CC(C)[C@H](NC(=O)c1cc(Cl)ccc1NS(=O)(=O)c1ccc(Oc2ccccc2Cl)cc1)c1ccccn1,inhibition,[2],33.2%
Cc1cc(CO)c2cccc(Cc3cccc(C(=O)Nc4ccc(C(=O)O)o4)c3)c2n1,inhibition,"PRVABC59, Concentration 49.95 uM, Number of replicates 2.0, Standard deviation 1.1430744565328115 %",9.19%
same,inhibition,"PRVABC59, Concentration 99.9 uM, Number of replicates 2.0, Standard deviation 1.0434494218967008 %",26.9%
COc1cccc(CC(=O)Nc2cccc(C(=O)O)c2)c1,inhibition,"PRVABC59, Concentration 49.5 uM, Number of replicates 2.0, Standard deviation 3.65290432322533 %",-1.9%
same,inhibition,"PRVABC59, Concentration 99.01 uM, Number of replicates 2.0, Standard deviation 2.0734382572705075 %",-1.79%
same,inhibition,"PRVABC59, Concentration 198.0 uM, Number of replicates 2.0, Standard deviation 1.7973949441374963 %",1.71%
CC(C)(CO)NC(=O)c1cc(Cl)cc(NC(=O)COc2cc(Cl)cc(Cl)c2)c1,inhibition,"PRVABC59, Concentration 49.5 uM, Number of replicates 2.0, Standard deviation 2.8806463957016115 %",4.68%
same,inhibition,"PRVABC59, Concentration 99.01 uM, Number of replicates 2.0, Standard deviation 2.1798936733965664 %",5.69%
same,inhibition,"PRVABC59, Concentration 198.0 uM, Number of replicates 2.0, Standard deviation 1.4648393452800168 %",5.59%
O=Cc1ccc(N2CCC(C(=O)N3CCCCC[C@H]3c3ccco3)CC2)cc1,inhibition,[1],24.1%
CC(=O)N[C@@H](CCCCN)C(=O)Nc1cccc(Cc2cccc3c(CO)cc(C)nc23)c1,inhibition,"PRVABC59, Concentration 49.95 uM, Number of replicates 2.0, Standard deviation 2.0664029156562504 %",-2.36%
same,inhibition,"PRVABC59, Concentration 99.9 uM, Number of replicates 2.0, Standard deviation 2.3921411563999717 %",13.4%
Cn1c(CO)nnc1[C@H]1CCCN(C(=O)c2cc(Cl)ccc2NS(=O)(=O)c2ccc(Oc3ccccc3Cl)cc2)C1,inhibition,[2],1.58%
C[C@@H](CNC(=O)c1ccn([C@H]2CCCNC2)n1)c1cccc(=O)[nH]1,inhibition,"PRVABC59, Concentration 49.5 uM, Number of replicates 2.0, Standard deviation 3.4567757759943705 %",0.214%
same,inhibition,"PRVABC59, Concentration 99.01 uM, Number of replicates 2.0, Standard deviation 2.531291505569599 %",1.08%
same,inhibition,"PRVABC59, Concentration 198.0 uM, Number of replicates 2.0, Standard deviation 6.404841661420009 %",3.56%
Cc1cccc(C)c1OC[C@H](C)NC(=O)C1CCN(c2ccc(C=O)cc2)CC1,inhibition,[1],12.2%
COc1cc(NC(=O)C2CCN(c3ccc(C=O)cc3)CC2)cc(OC)c1,inhibition,[1],28%
O=Cc1ccc(N2CCC(C(=O)NC[C@H](O)COc3ccccc3)CC2)cc1,inhibition,[1],25.2%
O=C(c1cc(Cl)ccc1NS(=O)(=O)c1ccc(Oc2ccccc2Cl)cc1)N1CCN(c2ccnc3cc(Cl)ccc23)CC1,inhibition,[2],16.6%
